Assay results reported in PubChem BioAssay AID1963961 (Molecular Pharmacology Branch, DTP, NCI, 2024).
For part of its entries the source gives two or more results. This is not the full list of results. The source may hold further records. Values that stand side by side repeat one measurement across runs, samples, wells, individuals or studies.

System: K98450-129-R-PDC multicell spheroids, viability
Test: Anticancer human tumor K98450-129-R-PDC patient-derived colon adenocarcinoma cell line growth inhibition [PI3K]
Settings: for IC50: compound alone; for viability, T/C: stronger effect = lower value
From the text: Combinatorial screen of targeted agents with the PI3K inhibitors inavolisib, alpelisib, duvelisib, and copanlisib in multi-cell type tumor spheroids
A high-throughput screen of multi-cell type tumor spheroids was designed to identify active combinations of targeted small molecules and PI3K pathway inhibitors. Complex spheroids include a stromal component modeled by human endothelial cells (HUVEC) and fibroblasts modeled by human mesenchymal stem cells (MSCs). The concentration ranges selected for each drug and investigational agent were based upon clinically achievable concentrations if the clinical Cmax of the agent was known.
Compounds. The drugs and investigational agents: inavolisib (NSC800729), alpelisib (NSC765974), duvelisib (NSC772469), copanlisib (NSC816437), ipatasertib (NSC767898), afuresertib (NSC778305), talazoparib (NSC767125), sapanisertib (NSC764658), selumetinib (NSC741078), tovorafenib (DAY101, NSC766906), vemurafenib (NSC761431), ravoxertinib (NSC781343), sotorasib (NSC818433), MRTX1133 (NSC 836407), abemaciclib (NSC 768073), palbociclib (NSC758247), venetoclax (NSC 766270), SY5609 (NSC837396), enzalutamide (NSC755605), and darolutamide (NSC825331), were obtained from the National Cancer Institute (NCI) Developmental Therapeutics Program Chemical Repository. The FDA-approved anticancer drug set is available from the NCI Developmental Therapeutics Program. […] The stock solutions were prepared in dimethyl sulfoxide (DMSO, Sigma-Aldrich, St. Louis, MO, cat. D2650) at 800-fold the tested concentration and stored at -70 degrees C prior to their use. All drugs and investigational agents were tested over a range starting from a high concentration at or near the clinical Cmax and decreasing in half-log increments. If the clinical Cmax for an agent had not been determined, the highest concentration tested was 10 microM.
Cell Culture. All cells were maintained in an incubator at 37 degrees C and 5% CO2 with 95% humidity. The PDC lines were cultured according to standard operating procedures established by the NCI PDMR (https://pdmr.cancer.gov/sops/default.htm). All PDCs were thawed and cultured in Matrigel-coated flasks prepared with a working solution of 1X Ham's F-12 nutrient mix, without supplementation (Invitrogen, Waltham, MA, cat. 11765054), 100 U/mL penicillin-streptomycin (Invitrogen, cat. 15140122), and 2.5% Matrigel (Corning Inc., Corning, NY, cat. 354248) for the first three passages. The 354836-022-R-J1-PDC, 475296-252-R-J1-PDC, and 997726-040-R-J2-PDC lines were cultured in 6A media, which includes advanced DMEM/F-12 (Thermo Fisher Scientific, cat. 12634028), 10 mM HEPES (Thermo Fisher Scientific, cat. 15630080), 1X GlutaMAX supplement (Thermo Fisher Scientific, cat. 35050061), 0.1 mg/mL primocin (InvivoGen, San Diego, CA, cat. ant-pm-2), 10% defined fetal bovine serum, heat inactivated (HyClone Laboratories Inc., Logan, UT, cat. SH30070.03HI), 50% L-WRN conditioned media (ATCC, cat. CRL-3276), 1.25 mM N-Acetyl-L-cysteine (Sigma-Aldrich, cat. A9165), 10 mM nicotinamide (Sigma-Aldrich, cat. N0636), 1X B-27 supplement (Thermo Fisher Scientific, cat. 17504044), 1X N-2 supplement (Thermo Fisher Scientific, cat. 17502048), and 10 microM Y-27632 dihydrochloride (Tocris Bioscience, Bristol, United Kingdom, cat. 1254). The 624824-186-R-J2-PDC line was cultured in 6C/Colon 1B media, which includes all 6A media components plus 50 ng/mL human EGF recombinant protein (Thermo Fisher Scientific, cat. PHG0311). […]
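Also: spheroids exposed to agents for seven days before read-out.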

| SMILES | IC50 | viability, T/C (compound alone 1 µM) | viability, T/C (compound alone 10 µM) | further results |
| --- | --- | --- | --- | --- |
| C=CC(=O)N1CCN(c2nc(=O)n(-c3c(C)ccnc3C(C)C)c3nc(-c4c(O)cccc4F)c(F)cc23)C(C)C1 (stereo not given) | 3.79 µM, 4.52 µM, > 10 µM, 7.98 µM | 82.4, 80, 56, 81.8% | 32.2, 30.4, 61.1, 50.8% | – |
| Cn1ncc(Cl)c1-c1cc(C(=O)NC(CN)Cc2cccc(F)c2)sc1Cl (stereo not given) | – | – | 85.2, 94, 61.5, 74% | – |
| CCCS(=O)(=O)Nc1ccc(F)c(C(=O)c2c[nH]c3ncc(-c4ccc(Cl)cc4)cc23)c1F | – | 106, 118, 101, 91.5% | – | viability, T/C (compound alone 0.1 µM): 104, 107, 116, 81.5%; viability, T/C (compound alone 3.16 µM): 132, 108, 97.4, 103% |
| CC1(C)CCC(CN2CCN(c3ccc(C(=O)NS(=O)(=O)c4ccc(NCC5CCOCC5)c([N+](=O)[O-])c4)c(Oc4cnc5[nH]ccc5c4)c3)CC2)=C(c2ccc(Cl)cc2)C1 | 5.95 µM, 5.81 µM, 5.58 µM, > 10 µM | – | 13.7, 8.19, 4.16, 102% | – |
| Cn1ncnc1[C@H]1c2n[nH]c(=O)c3cc(F)cc(c23)N[C@@H]1c1ccc(F)cc1 | – | – | – | viability, T/C (compound alone 0.01 µM): 99, 101, 89.6, 117% |
